Data from the supplement of paper PMC3334620.
In all, about 33,000 sequences were measured (“E-score (-0.5 to 0.5)”: median about -0.016, highest 2% from about 0.31 on). This is one part of the list.

What follows are sequences tested against Cst6 (UniProt P40535) (assay: PBM E-score (8-mer binding enrichment) (E-score (-0.5 to 0.5)); higher = stronger / more preferred TF binding; most listed sequences are background and not binding sites). Conditions: protein concentration: 200 nM; construct: GST-DNA-binding domain.
Procedure, shortened: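 Universal all-10-mer Agilent arrays, double-stranded by primer extension on fresh or once-stripped slides, were probed with about 100-200 nM GST-tagged yeast transcription factors made by PURExpress. Fluorescent anti-GST detected bound protein, and masliner normalised the scans. E-scores from the Universal PBM Analysis Suite were given to each ungapped eight-base word pooled with its reverse complement.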
For AGAACTGG, the “PBM E-score” value was -0.0721.
GGAGGACA was tested, and the “PBM E-score” value was -0.227.
ATGCTTCA was tested, and the “PBM E-score” value was -0.00241.
In the case of AATGGCAT, the “PBM E-score” value is reported as 0.299.
With AATACTGA the “PBM E-score” value was 0.104.
For TACAGGGA, the “PBM E-score” value was -0.162.
For AAGCGACC, the “PBM E-score” value was -0.0874.
With CGTCGGAC the “PBM E-score” value was -0.178.
In the case of CCCTTGCG, the “PBM E-score” value is reported as -0.289.
With ATGCGTAA the “PBM E-score” value was 0.268.
TATACCCA was tested, and the “PBM E-score” value was -0.168.
With CGCAAGTC the “PBM E-score” value was -0.275.
AGTGTATC was tested, and the “PBM E-score” value was 0.078.
For AGGGTCGG, the “PBM E-score” value was -0.272.
With AGAGCACT the “PBM E-score” value was 0.0676.
In the case of CGGGTATA, the “PBM E-score” value is reported as 0.0585.
With CCGCTGGC the “PBM E-score” value was -0.115.
GAAACACC was tested, and the “PBM E-score” value was 0.0585.
For CATAAGGG, the “PBM E-score” value was 0.0526.
For GCCCACTA, the “PBM E-score” value was -0.219.
With AGCCTATA the “PBM E-score” value was 0.0298.
In the case of AGTCCCCG, the “PBM E-score” value is reported as -0.388.
With AATTGATC the “PBM E-score” value was 0.0237.
With AGTGAGAT the “PBM E-score” value was 0.099.
In the case of AATAGATG, the “PBM E-score” value is reported as 0.268.
For GTTAGTTA, the “PBM E-score” value was 0.227.
CGTGCTGC was tested, and the “PBM E-score” value was -0.0889.
GCCGAGCC was tested, and the “PBM E-score” value was 0.00552.
With ACACTCGA the “PBM E-score” value was -0.0775.
With CACTGTCC the “PBM E-score” value was -0.0417.
In the case of AACTGATA, the “PBM E-score” value is reported as 0.152.
In the case of CTGCAACC, the “PBM E-score” value is reported as -0.19.
CATTTGAA was tested, and the “PBM E-score” value was 0.134.
With CTCTCCGC the “PBM E-score” value was -0.078.
For GTACTTTA, the “PBM E-score” value was 0.138.
In the case of CCCAGCCG, the “PBM E-score” value is reported as -0.253.
With TAGTGAAA the “PBM E-score” value was -0.00366.
For CGTACTAG, the “PBM E-score” value was -0.0411.
For GGACCTTA, the “PBM E-score” value was -0.223.
CCCTAGGC was tested, and the “PBM E-score” value was -0.201.
For ATGACCGA, the “PBM E-score” value was 0.184.
For CTACCCGA, the “PBM E-score” value was -0.087.
In the case of AGAGGCGG, the “PBM E-score” value is reported as -0.149.
In the case of AAACTCTG, the “PBM E-score” value is reported as 0.0867.
For CGGGCACC, the “PBM E-score” value was -0.0698.
In the case of AAAAGTTC, the “PBM E-score” value is reported as 0.154.
For ATTTTCTA, the “PBM E-score” value was 0.211.
In the case of GGTACCAA, the “PBM E-score” value is reported as -0.188.
For CTCCCTTA, the “PBM E-score” value was -0.223.
CCCATGTC was tested, and the “PBM E-score” value was -0.0686.
With CCATCCTA the “PBM E-score” value was -0.123.
With CGGGCCAC the “PBM E-score” value was -0.172.
In the case of TAGAATCA, the “PBM E-score” value is reported as 0.0982.
For ATTAACCC, the “PBM E-score” value was 0.0217.
ACTAGTGA was tested, and the “PBM E-score” value was 0.0612.
In the case of GCAGCCGC, the “PBM E-score” value is reported as -0.0375.
In the case of CTAAATTA, the “PBM E-score” value is reported as 0.262.
For GGTCGCCA, the “PBM E-score” value was -0.303.
In the case of GCTTGGAC, the “PBM E-score” value is reported as -0.338.
In the case of AGTAGCGC, the “PBM E-score” value is reported as 0.0288.
For AAAACTTG, the “PBM E-score” value was 0.188.
With CACGGGAC the “PBM E-score” value was -0.13.
With GCCCAAGC the “PBM E-score” value was -0.224.
In the case of AATGCGAC, the “PBM E-score” value is reported as 0.172.
GGATCTAC was tested, and the “PBM E-score” value was -0.146.
In the case of ATACAAGA, the “PBM E-score” value is reported as -0.0014.
In the case of AACTGACC, the “PBM E-score” value is reported as -0.182.
With CGATGTAA the “PBM E-score” value was 0.117.
With CTCCATCC the “PBM E-score” value was -0.24.
In the case of GGTATGGA, the “PBM E-score” value is reported as -0.192.
In the case of AACAACCA, the “PBM E-score” value is reported as 0.187.
With ACGCGTAG the “PBM E-score” value was -0.125.
CATCACGG was tested, and the “PBM E-score” value was 0.242.
CTAAGCAC was tested, and the “PBM E-score” value was 0.0393.
GACTAGGC was tested, and the “PBM E-score” value was -0.106.
CCCAATGA was tested, and the “PBM E-score” value was 0.193.
In the case of AAGGTGCT, the “PBM E-score” value is reported as -0.145.
TCGAAAGA was tested, and the “PBM E-score” value was 0.0871.
In the case of ATAGCTTG, the “PBM E-score” value is reported as 0.0183.
ACGCTGAT was tested, and the “PBM E-score” value was 0.119.
AACCGGCT was tested, and the “PBM E-score” value was -0.214.
For GTAAAATA, the “PBM E-score” value was 0.0657.
With CAGTGTCC the “PBM E-score” value was -0.112.
With CCACCTTA the “PBM E-score” value was -0.0336.
With GTCAGGAA the “PBM E-score” value was 0.0884.
For AATTGGTG, the “PBM E-score” value was 0.187.
GCGTCCAC was tested, and the “PBM E-score” value was -0.0955.
With ACGGCGTC the “PBM E-score” value was 0.347.
In the case of CGTATAAC, the “PBM E-score” value is reported as 0.261.
In the case of GCTTAAAA, the “PBM E-score” value is reported as 0.159.
CATTTCCA was tested, and the “PBM E-score” value was 0.143.
With ATACTGCC the “PBM E-score” value was -0.0935.
For AATGAGCG, the “PBM E-score” value was 0.139.
CGATATCC was tested, and the “PBM E-score” value was -0.00743.
